The values that follow come from PubChem BioAssay AID488969 (Vanderbilt High Throughput Screening Facility, 2010).

The full ranking holds about 110,000 compounds; the median of “z-score” is about -0.1, and the highest 2% start at about 2. This is one part of the list. Calls of active or inactive are those of the source.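 Rule for the calls: active = z-score in the third read window above 3 or below -3; inactive = the rest.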

The target in the experiment is Metabotropic glutamate receptor 8 (Rattus norvegicus) (UniProt P70579). The experiment can be described thus: rat mGluR8 modulators via GIRK flux, primary screen, cell-based, thallium flux, HTS (AID 488969). The settings on record: HEK293 rat mGluR8, GIRK (G protein-gated inwardly rectifying potassium channel) thallium flux, FluoZin2; at 10 µM; stronger effect = higher value; submaximal glutamate (EC20) added with thallium.
UniProt P70579, sequence (P70579 whole entry, looked up): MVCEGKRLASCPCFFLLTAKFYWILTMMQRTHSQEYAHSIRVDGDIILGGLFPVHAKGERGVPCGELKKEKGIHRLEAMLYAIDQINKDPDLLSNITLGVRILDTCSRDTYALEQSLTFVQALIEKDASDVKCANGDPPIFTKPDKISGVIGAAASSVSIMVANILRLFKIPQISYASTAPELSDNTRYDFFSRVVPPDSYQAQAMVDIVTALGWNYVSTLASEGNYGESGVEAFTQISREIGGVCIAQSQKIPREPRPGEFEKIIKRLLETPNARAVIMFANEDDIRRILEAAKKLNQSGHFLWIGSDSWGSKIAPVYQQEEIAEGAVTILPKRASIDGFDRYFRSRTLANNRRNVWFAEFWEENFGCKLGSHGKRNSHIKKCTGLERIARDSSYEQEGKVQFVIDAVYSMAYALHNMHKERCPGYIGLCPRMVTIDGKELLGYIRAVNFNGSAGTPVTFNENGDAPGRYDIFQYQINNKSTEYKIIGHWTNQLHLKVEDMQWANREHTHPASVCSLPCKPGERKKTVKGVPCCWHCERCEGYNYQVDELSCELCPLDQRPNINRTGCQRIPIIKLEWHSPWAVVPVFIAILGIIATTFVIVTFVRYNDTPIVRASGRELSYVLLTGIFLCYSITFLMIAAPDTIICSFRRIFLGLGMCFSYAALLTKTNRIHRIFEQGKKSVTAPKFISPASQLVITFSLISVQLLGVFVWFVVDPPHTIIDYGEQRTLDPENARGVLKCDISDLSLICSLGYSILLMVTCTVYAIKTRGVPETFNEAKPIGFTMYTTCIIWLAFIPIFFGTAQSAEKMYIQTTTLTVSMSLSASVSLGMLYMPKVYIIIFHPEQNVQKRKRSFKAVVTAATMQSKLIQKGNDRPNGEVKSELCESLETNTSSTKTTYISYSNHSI
The compound `Cc1nnc(NC(=O)CSc2nnc(Cc3cccn3C)n2-c2ccccc2)s1` returned a z-score of -0.55.

`Cc1nn(Cc2ccc(Cl)c(Cl)c2)c(C)c1NC(=O)c1cc(-c2ccc3c(c2)OCO3)on1` yielded a z-score of -1.04.

In turn, `O=C(/C(=N\Nc1ccc(Br)cc1)Sc1nnnn1-c1ccccc1)c1ccccc1` registered a z-score of 0.0937.

In the case of `COc1ccccc1NC(=O)C(Sc1ccccc1)c1ccccc1` (stereo not given), the z-score was found to be 0.792.

With `Cc1nnc(NC(=O)c2ccc(Br)cc2)s1`, the z-score is -0.102.

Take `O=C(O)CCn1c(=S)oc2ccccc21`: the z-score was -0.181.

`CC(=O)Nc1ccc(S(=O)(=O)NC2(C(F)(F)F)C(=O)Nc3c2c(=O)[nH]c(=O)n3Cc2ccccc2)cc1` (stereo not given) returned a z-score of 0.395.

`Cc1c(-c2nnnn2-c2ccc(F)cc2)cnc2cc3c(cc12)OCO3`: the z-score turned out to be 0.0261.

The compound `CCOC(=O)c1sc2nccc(N(C)C)c2c1N=CNOCc1ccccc1` returned a z-score of -0.0223.

In turn, `Cc1cc(C)n(-c2ccn(Cc3ccc(Cl)cc3Cl)c(=O)n2)n1` yielded a z-score of -0.157.

Compound `COc1ccc(-c2nc3c(=O)n(C)c(=O)[nH]c3n2CCc2ccccc2)cc1` registered a z-score of -0.516.

On to `Cc1ccc(C)c(-n2nnnc2SCC(=O)Nc2cccc(-c3nnc4n3CCCCC4)c2)c1`, for which the z-score was active: -3.95.

`CCn1cc(S(=O)(=O)CC(=O)Nc2ccc(C)cc2)c2ccccc21` came in with a z-score of -0.393.

Turning to `CCn1c(CNc2ccc(C)cc2)nnc1SCC(N)=O`, the z-score was 0.124.

Compound `COc1ccc(Cn2c(-c3ccc(OC)cc3)nc3ccccc32)cc1` gave a z-score of -1.46.

Compound `O=C(COC(=O)c1ccccc1C(=O)N1CCN(c2ccc(F)cc2)CC1)NCc1ccccc1` registered a z-score of -0.352.

For `Cc1ccc(N2C(=O)[C@@H]3[C@H](C2=O)C2c4ccccc4C=CN2[C@@H]3C(=O)c2ccco2)c(C)c1` (stereo not given in full), the z-score was 0.293.

On to `Cc1ccccc1Oc1nc2c(C)cccn2c(=O)c1/C=C(\C#N)C(=O)Nc1c(C)n(C)n(-c2ccccc2)c1=O`, for which the z-score was -0.477.

In the case of `COc1ccccc1CNC(=O)CS(=O)Cc1nc(-c2ccccc2C)oc1C` (stereo not given), the z-score was -0.598.

As to `Cc1ccc(NC(=O)C(OC(=O)c2ccc(C=O)cc2)c2ccccc2)cc1Cl` (stereo not given), the z-score is 0.187.

As to `COc1cc(C(O)P(=O)(OCC(C)C)OCC(C)C)cc(OC)c1OC` (stereo not given), the z-score was -0.245.

On to `c1ccc(-c2ccc3c(c2)c2c4n3CCN=C4CCC2)cc1`, for which the z-score is 0.505.

Compound `Cc1ccc(-n2c(-c3cc(C)n(C)n3)n[nH]c2=S)cc1` displayed a z-score of -0.289.

Take `O=C(C(c1ccccc1)c1ccccc1)N1CCCc2ccccc21`: the z-score was found to be 0.0643.

Regarding `Cc1ccc(-c2cc(-c3ccccc3)c3c(N)c(S(C)(=O)=O)sc3n2)cc1`, the z-score worked out at 0.593.

For the compound `Cn1c(-c2c(N)n(-c3ccccc3)c3nc4ccccc4nc23)nc2ccccc21`, the z-score was found to be 0.268.

`Cc1occc1C(=O)N/N=C/c1cccs1` registered a z-score of 0.00925.

With `CCOC(=O)CCc1c(C)c2ccc(OCC)c(C)c2oc1=O`, the z-score is -0.544.

`COc1cc(Cl)c(C)cc1NC(=O)COC(=O)c1cnc(C)cn1` came in with a z-score of -1.27.

In turn, `O=C(Cn1c(=O)oc2ccccc21)N(Cc1ccccc1)C1CCS(=O)(=O)C1` (stereo not given) showed a z-score of -0.0425.

`CCc1ccc(/C=N/NC(=O)c2cc(C)on2)s1` had a z-score of -0.145.

Compound `CCOc1ccc(N(CC(=O)NCC2CCCO2)S(=O)(=O)c2ccc(OC)c(OC)c2)cc1` (stereo not given) displayed a z-score of 0.0613.

`Cc1c(CN(C)C)c2c(n1C)C(=O)c1ccc(Br)cc1-2`: the z-score is -0.258.

Compound `CC(C)(C)NC(=O)NC(=O)CN1CCN(c2ncc(C(F)(F)F)cc2Cl)CC1` yielded a z-score of -0.519.

In turn, `CCCCNC(=O)CCc1c(C)nc2nc(-c3cc(OC)cc(OC)c3)nn2c1C` yielded a z-score of -0.28.

Consider `Cc1ccc(NC(=S)NC(NC(=O)N(C)C)C(Cl)(Cl)Cl)cc1` (stereo not given), for which the z-score turned out to be 1.47.

`CCOc1ccc(N=c2oc3cc(O)ccc3cc2C(=O)NCC2CCCO2)cc1` (stereo not given) registered a z-score of -0.319.

For `O=S(=O)(NC1CCCCC1Oc1ccccc1)c1ccc(Cl)cc1` (stereo not given), the z-score was -0.762.

Compound `CCOc1cc(/C=N\NC(=O)c2ccc(NC(=O)CC)cc2)ccc1OC(=O)c1ccccc1` had a z-score of -0.103.

`O=C(/C=C/c1ccc(Cl)cc1)NCCc1ccccc1` returned a z-score of -0.176.

Compound `O=C(Nc1ccc(Cl)cc1)[C@@H]1[C@@H]2C(=O)N(c3ccc(Cl)cc3)C(=O)[C@@H]2[C@H]2C=CC=NN21` came in with a z-score of -0.51.

On to `c1ccc2c(-c3nn[nH]n3)cccc2c1`, for which the z-score was -0.719.

In the case of `O=C(CS(=O)CC(=O)N(CC(=O)NC1CCCC1)C1CCCC1)Nc1ccc(F)cc1` (stereo not given), the z-score is -0.488.

In turn, `Cc1ccc(C(=O)OCC(=O)Nc2ncc(C(F)(F)F)cc2Cl)cc1NC(=O)c1ccco1` returned a z-score of 0.575.

The compound `CC(C)CCNC(=O)C1CC(c2cccc([N+](=O)[O-])c2)=NO1` (stereo not given) came in with a z-score of 0.109.

On to `Cc1cccc(Nc2nnc(SCc3cn4ccsc4n3)s2)c1`, for which the z-score was determined as 0.254.

As for `CCN1CCN(C(=S)Nc2ccc(Cl)cc2)CC1`, the z-score was -0.046.

In the case of `C=C(C)CNC(=S)Nc1cccc2cnccc12`, the z-score was active: 3.1.

Turning to `COCCn1c(SCC(=O)N2CCCc3ccccc32)nnc1-c1ccco1`, the z-score was 0.326.

Compound `COC(=O)c1ccccc1NC(=O)C1CC=CCC1C(=O)O` (stereo not given) displayed a z-score of 0.113.

Compound `O=C(CSc1nc2ccc([N+](=O)[O-])cc2[nH]1)NCCc1ccccc1` yielded a z-score of -0.133.

On to `Cc1ccc(C(=O)Nc2ccc3c4c(cccc24)CC3)cc1[N+](=O)[O-]`, for which the z-score amounted to 0.279.

Compound `COc1ccc(C(=O)Nc2cccc(OC)c2)cc1` yielded a z-score of 0.175.

For `O=C(CSc1ccc2ccccc2n1)N1CCC(c2noc3ccc(F)cc23)CC1`, the z-score is -0.0915.

In turn, `O=[N+]([O-])c1ccc2c(c1)C(O)n1nc(-c3ccc(Cl)cc3Cl)nc1S2` (stereo not given) gave a z-score of 0.0785.

The compound `O=C(O)c1sccc1SCc1ccc(Cl)cc1Cl` had a z-score of -0.536.

`CN(CC#CCC(c1ccccc1)c1ccccc1)C(C)(C)C` returned a z-score of 0.756.

`CC(=O)N(c1ccccc1)c1c(F)c(F)c(F)c(F)c1F` registered a z-score of 0.16.

Compound `CC(=O)c1cccc(NC(=O)C2CCCN(S(=O)(=O)c3cccc4cccnc34)C2)c1` (stereo not given) showed a z-score of 0.941.

The compound `CS(=O)(=O)Nc1ccc(C2=NN(S(C)(=O)=O)C(c3ccc4c(c3)OCO4)C2)cc1` (stereo not given) displayed a z-score of -0.268.

Compound `CCOC(=O)c1c(C)[nH]c(C)c1C(=O)CSc1nnc(-c2ccncc2)n1Cc1ccccc1` returned a z-score of 0.179.

The compound `COc1ccc(-c2nnc(NC(=O)c3ccc(S(=O)(=O)N4CCCc5ccccc54)cc3)o2)cc1` came in with a z-score of 2.07.

As to `CC(C)Cc1[nH]c(=O)c(C#N)c2c1CCCC2`, the z-score was 0.306.

In turn, `CC(C)CN(C(=O)CSc1nncs1)c1c(N)n(CC(C)C)c(=O)[nH]c1=O` had a z-score of 0.163.

Compound `CCCN(CCC)C(=O)Cn1c(=O)n(CCCCC(=O)NCc2ccco2)c(=O)c2ccccc21` had a z-score of -0.0485.

`CCOC(=O)Cc1nnc(Nc2ccc(C)cc2)c2ccccc12`: the z-score was -0.717.

The compound `COc1ccc(NC(=O)Nc2cccc(C(=O)N3CCOCC3)c2)cc1OC` came in with a z-score of 0.0471.

As to `Cc1ccc(-n2nc3c(c2NC(=O)c2ccc4c(c2)OCO4)CSC3)cc1`, the z-score was -0.00852.

Consider `Cc1ccc(NC(=S)C2=C(O)c3ccccc3N(C)S2(=O)=O)cc1`, for which the z-score is -0.0624.

In the case of `COc1ccc(/C=C/C(=O)c2ccc[nH]2)cc1OC`, the z-score was found to be 0.97.

For `CCOC(=O)C1=C(CP(=O)(c2ccccc2)c2ccccc2)NC(=O)NC1c1ccc(OC)cc1` (stereo not given), the z-score is -0.301.

`CC(C)CCNC(=S)NC1CCCC1` gave a z-score of 0.0564.

The compound `CN(C)Cc1cc(CCNC(=O)c2ccc(Cl)cc2)ccc1O` yielded a z-score of 0.0103.

In the case of `Cc1cc(C(=O)CSc2nnc(-c3ccccc3)n2-c2ccccc2)c(C)n1-c1ncn[nH]1`, the z-score was -0.484.

Compound `Cn1c(=O)c2c(ncn2CC(=O)Nc2nc3ccc(F)cc3s2)n(C)c1=O` returned a z-score of 0.54.

As for `CC(C)C(OC(=O)c1cc2sccc2n1C)C(=O)NCC1CCCO1` (stereo not given), the z-score worked out at 0.112.

As to `Cc1ccc(N(Cc2cc3cc(C)ccc3[nH]c2=O)C(=O)c2cccs2)cc1`, the z-score is -0.171.

For `COC(=O)c1ccccc1NC(=O)Cn1c(=O)n(Cc2ccccc2)c(=O)c2c(C)c(C)sc21`, the z-score was -0.187.

`Cc1ccc(-n2c(SCC(=O)NCCN3C(=O)CSC3=O)nnc2-c2ccccc2F)cc1`: the z-score is -0.594.

In turn, `Cc1ccc2oc(=O)n(CC(=O)OC(C)C)c2c1` registered a z-score of 0.627.

`COc1ccc(NC(=O)c2c(Nc3ccccc3)sc(C(=O)c3ccc(F)cc3)c2N)cc1`: the z-score turned out to be 0.0789.

Turning to `COc1ccc(NC(=O)CCN2CC(C)OC(C)C2)c(OC)c1` (stereo not given), the z-score was 0.0465.

`O=C1CSC(c2cn(-c3ccccc3)nc2-c2cccs2)N1Cc1ccccc1` (stereo not given): the z-score came out at 0.0123.

Turning to `O=C(c1cccc(S(=O)(=O)N2CCCC2)c1)N1CCN(c2ccccc2F)CC1`, the z-score was -1.1.

In turn, `O=C(N/N=C/c1ccco1)C1COc2ccccc2O1` (stereo not given) registered a z-score of -0.0331.

In turn, `CCCNS(=O)(=O)c1ccc(N2CCCC2=O)c([N+](=O)[O-])c1` returned a z-score of 0.0118.

In turn, `CCn1c(COc2ccccc2)nnc1SCC(=O)NC1CCCCC1` displayed a z-score of -0.985.

In turn, `COc1ccc(C(=O)COC(=O)CSCc2c(C)noc2C)cc1OC` registered a z-score of -0.995.

As for `COc1ccc(Cl)cc1Nc1ncnc2sc(C)c(S(=O)(=O)N3CCC(C)CC3)c12`, the z-score is -0.241.

For the compound `CCOC(=O)c1c(NC(=O)CCCN2CCOCC2)sc2c1CC(C)(C)OC2`, the z-score is -0.14.

As to `N#Cc1c(-n2ccnc2)cccc1-n1ccnc1`, the z-score turned out to be 0.0872.

As to `CCOC(=O)c1cc2c(ccn2C)n1CC(=O)N(Cc1ccccc1)c1ccc(F)cc1`, the z-score was 1.2.

As for `Cc1ccc(CCNC(=O)C2CCCN2S(=O)(=O)c2ccc3c(c2)CCC(=O)N3)cc1` (stereo not given), the z-score is -0.412.

Compound `Cc1ccc2c(c1)NC(=O)c1cccnc1N2` yielded a z-score of 0.0515.

`O=C(CCn1c(=O)sc2ccccc21)NCc1ccco1` had a z-score of 0.309.

The compound `CC(C)Cn1cc(C(=O)NC2CCN(Cc3ccccc3)CC2)c2c3ccccc3n(C)c2c1=O` gave a z-score of -0.13.

On to `COc1ccccc1CNC(=O)CCS(=O)(=O)c1cccc2nonc12`, for which the z-score was -0.0177.

Turning to `CCN(CC)CCCN1C(=O)C(O)=C(C(=O)c2ccc(C)o2)C1c1ccco1` (stereo not given), the z-score is -0.221.

`Cc1ccc(NC(=O)Cn2nnc(C(=O)NCc3cccs3)c2N)cc1` registered a z-score of 0.163.

Compound `Cc1ccc(OCCC(=O)Nc2c(C)n(C)n(-c3ccccc3)c2=O)cc1` gave a z-score of 0.284.

The compound `Cc1cc(=O)oc(C)c1C(=O)Nc1c(C)n(C)n(-c2ccccc2)c1=O` came in with a z-score of -0.283.

Take `O=C(COc1nc2ccccc2nc1N1CCOCC1)NC1CCCCC1`: the z-score came to 0.225.

As for `O=S(=O)(NCc1cccnc1)c1cc(Cl)ccc1Cl`, the z-score is -0.195.

The compound `COC(=O)c1ccc(CNC(=O)COC(=O)CCC2CCCC2)cc1` returned a z-score of 0.00997.

`N#C/C(=C/c1ccc(N2CCCCCC2)o1)c1cccc(F)c1`: the z-score is -0.488.
